In US7811992B2, “Anti-infarction molecules” (Stasys Technologies, Inc., priority 2002, dated 2010):
Several values for one entry are separate records, joined by “and”; a condition that tells them apart may be missing. Equal values may be shown once.

Test system: cerebral infarction in mouse MCAO model
Experiment: Mouse MCAO model, FPA variants (Example 5)
Type: in vivo, C57BL/6 mouse
Conditions: for % Ischemic Injury: dose equivalent to 10 mg/kg of parent peptide, 1 hour after MCAO; for ischemia injury %, Mean: mean over the animals of one experiment, VP001 10 mg/kg, other variants equivalent dose according to MW

VP012 (GEFLAEGGGV)
% Ischemic Injury: 27.8% | ischemia injury %, Mean: 24.5% and 31.0%

VP013 (GEFLAEGGG)
% Ischemic Injury: 27.2% | ischemia injury %, Mean: 27.2%

VP014 (GEFLAEGG)
% Ischemic Injury: 22.9% | ischemia injury %, Mean: 20.0% and 25.9%

VP015 (GEFLAEG)
% Ischemic Injury: 17.5% | ischemia injury %, Mean: 17.6%

VP016 (GEFLAE)
% Ischemic Injury: 28.7% | ischemia injury %, Mean: 28.7%

VP017 (GEFLA)
% Ischemic Injury: 27.3% | ischemia injury %, Mean: 27.3%

VP018 (EFLAEGGGVR)
% Ischemic Injury: 26.2% | ischemia injury %, Mean: 26.2%

VP019 (FLAEGGGVR)
% Ischemic Injury: 14.1% | ischemia injury %, Mean: 14.1%

VP020 (LAEGGGVR)
% Ischemic Injury: 28.4% | ischemia injury %, Mean: 28.4%

VP021 (AEGGGVR)
% Ischemic Injury: 15.6% | ischemia injury %, Mean: 15.6%

VP022 (EGGGVR)
% Ischemic Injury: 19.9% | ischemia injury %, Mean: 19.9%

VP023 (EFLAE)
% Ischemic Injury: 16.4% | ischemia injury %, Mean: 16.4%

VP024 (FLAEG)
% Ischemic Injury: 22.2% | ischemia injury %, Mean: 22.2%

VP025 (LAEGG)
% Ischemic Injury: 25.8% | ischemia injury %, Mean: 25.8%

VP026 (AEGGG)
% Ischemic Injury: 36.8% | ischemia injury %, Mean: 36.8%

VP027 (EGGGV)
% Ischemic Injury: 31.1% | ischemia injury %, Mean: 31.1%

VP028 (GGGVR)
% Ischemic Injury: 13.9% | ischemia injury %, Mean: 13.9%

VP029 (AEFLAEGGGVR)
% Ischemic Injury: 5.6% | ischemia injury %, Mean: 5.6%

VP030 (GAFLAEGGGVR)
% Ischemic Injury: 18.3% | ischemia injury %, Mean: 18.3%

VP031 (GEALAEGGGVR)
% Ischemic Injury: 18.7% | ischemia injury %, Mean: 18.7%

VP032 (GEFAAEGGGVR)
% Ischemic Injury: 22.4% | ischemia injury %, Mean: 17.5% and 27.2%

VP033 (GEFLGEGGGVR)
% Ischemic Injury: 15.4% | ischemia injury %, Mean: 15.4%

VP034 (GEFLAAGGGVR)
% Ischemic Injury: 21.8% | ischemia injury %, Mean: 21.8%

VP035 (GEFLAEAGGVR)
% Ischemic Injury: 19.0% | ischemia injury %, Mean: 19.0%

VP036 (GEFLAEGAGVR)
% Ischemic Injury: 28.9% | ischemia injury %, Mean: 28.9%

VP037 (GEFLAEGGAVR)
% Ischemic Injury: 16.9% | ischemia injury %, Mean: 16.9%

VP038 (GEFLAEGGGAR)
% Ischemic Injury: 32.3% | ischemia injury %, Mean: 32.3%

VP039 (ADTDKGEFLAEGGGVR)
% Ischemic Injury: 24.8% | ischemia injury %, Mean: 22.7% and 26.8%
